± gives the standard deviation of the averaged measurements. The list shows a part of the results.
These sequences were tested on PfAP2-EXP AP2 domain (GST-tagged) (assay: gcPBM binding intensity (ln(normalized median fluorescence intensity)); higher = stronger DNA binding).
How it was run: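 The highest Masliner-normalised natural-log median intensity across replicate spots of either probe orientation is reported as binding intensity. GST-tagged P. falciparum DNA-binding domains expressed in E. coli were applied for 1 h to an Agilent 4 × 180k array of primer-extended double-stranded 36-bp intergenic genomic probes plus negative controls, and bound protein was detected with Alexa488 anti-GST antibody and scanned at 488 nm.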

“ATATATCATAATAAAAGTACTTATATATTTTATATA [XGTACX_site560]” and “AAAATAAATAAATATACACACCATATATATATTTTT [CACACA_site5573]” are within error of each other in “gcPBM binding intensity (ln)” value: 8.19 ± 0.33 for the first, 8.3 ± 0.42 for the second.

“ATATTTATAACTTGTACACACAAATATGCATATATA [CACACA_site7583]” and “TTATTATTCCCTCATTTTGTTACCATTATTTCAATT [CACACA_negctrl_site1023]” are within error of each other in “gcPBM binding intensity (ln)” value: 8.84 ± 0.33 for the first, 9.12 ± 0.4 for the second.

“TTAAAATTTTTTTTTTTTTTTTTTTTTTTTTTTTTC [CACACA_negctrl_site957]” and “TTGTTAAAATTATTAAGTTAAATATCGATTTGTAAA [XGTACX_negctrl_site429]” are within error of each other in “gcPBM binding intensity (ln)” value: 7.71 ± 0.56 for the first, 8.06 ± 0.41 for the second.

Going from “TATAAGTTTATATATACACACATATATATATATATA [CACACA_site3274]” to “TAAAATGAATATAGGTGTACTTAAAAAAAAGTAAAA [XGTACX_site4613]”, the “gcPBM binding intensity (ln)” value falls from 10.2 ± 0.34 to 8.57 ± 0.23.

“TAAAAGAAATAATATACACACATATATAAAAATAAA [CACACA_site1329]” and “TAAATTCTTTATAATCGTACATAAATAGAAAAATAA [XGTACX_site601]” are within error of each other in “gcPBM binding intensity (ln)” value: 8.51 ± 0.51 for the first, 8.52 ± 0.33 for the second.

“TATCGAGCCATTTTTACATGCAATTATACATAATTT [TGCATGCA_site987]” and “CATGTATACTATAATACACACTATAAAATATACACC [CACACA_site7121]” are within error of each other in “gcPBM binding intensity (ln)” value: 8.96 ± 0.42 for the first, 8.53 ± 0.19 for the second.

“TTCAAATAATTTAAATGTACGTTGCTTTATTAAAAG [XGTACX_site3674]” and “ATGATGAAAATAGAAATACACACTAAAAAATAAAAT [CACACA_site1136]” are within error of each other in “gcPBM binding intensity (ln)” value: 8.38 ± 0.28 for the first, 8.71 ± 0.7 for the second.

“ATAAATAATAAAAAATGTACACATATAAATATAAAG [XGTACX_site727]” and “AAAACATGTTCAACATGTACACAACAGGATGAATAT [XGTACX_site506]” are within error of each other in “gcPBM binding intensity (ln)” value: 8.705 ± 0.078 for the first, 8.95 ± 0.42 for the second.

“AAATATATGTTATATGTGCACTTTTTTTTTTTTTTT [GTGCAC_site9667]” and “CTTACTTACTTACTCACACACATATACAAAGAAAAA [CACACA_site3347]” are within error of each other in “gcPBM binding intensity (ln)” value: 8.86 ± 0.092 for the first, 8.74 ± 0.38 for the second.

“TTTTACTAAATATATACACACATTATACATATATAT [CACACA_site9081]” and “TGTTAAAAGGTTAAATTAAAATAACCTCCGGAAATT [GTGCAC_negctrl_site236]” are within error of each other in “gcPBM binding intensity (ln)” value: 8.52 ± 0.3 for the first, 8.34 ± 0.48 for the second.

“GAATGCATGTAAATATGTACATATATTTAAAAATTT [XGTACX_site6032]” and “AAAAAAATTTCACATTGTACTTTAATAATATACTAC [XGTACX_site7264]” are within error of each other in “gcPBM binding intensity (ln)” value: 8.89 ± 0.41 for the first, 8.31 ± 0.25 for the second.

Going from “ATAAATATATATTTACGTACATATTATATATATATA [XGTACX_site6172]” to “ACATATAAATTGTGTACACATATATATATATTTTTT [CACACA_site5946]”, the “gcPBM binding intensity (ln)” value falls from 9.68 ± 0.35 to 8.62 ± 0.18.

“GTTTTGTACATATTCTCACACATATAAAAATACCCA [CACACA_site4446]” and “AAGCATTTAATGTTTTATATAACATGTATTTTTTAT [CACACA_negctrl_site673]” are within error of each other in “gcPBM binding intensity (ln)” value: 8.96 ± 0.36 for the first, 8.38 ± 0.45 for the second.

Going from “TTCATAATAAAAAGGTGTACATATATATATATATAT [XGTACX_site2829]” to “TTTATATGTATACAAACATATAAATATAAATGTATT [TGCATGCA_negctrl_site346]”, the “gcPBM binding intensity (ln)” value falls from 10.34 ± 0.085 to 8.3 ± 0.4.

“TATATATACATATACACACACACACCGATATATATA [CACACA_site8706]” and “TGTTCTATGATTTGTACACACTTTTTTTTAAAATGC [CACACA_site5558]” are within error of each other in “gcPBM binding intensity (ln)” value: 8.76 ± 0.39 for the first, 8.8 ± 0.35 for the second.

“ATATTACGCACAAAAAAAAAAAAAAAAAAAAAAAAA [CACACA_negctrl_site941]” and “AAAATTAAAATTTTCACACAGATATATTTACAATTT [CACACA_site5692]” are within error of each other in “gcPBM binding intensity (ln)” value: 8.33 ± 0.071 for the first, 8.07 ± 0.4 for the second.

“ATGATGTGCTTTAAAAGTACTTAAGTTATATTCTTT [XGTACX_site7127]” and “AAAAAGAAGAATAATACACACAAATTACTTTATATA [CACACA_site6984]” are within error of each other in “gcPBM binding intensity (ln)” value: 8.59 ± 0.26 for the first, 8.46 ± 0.38 for the second.

“TTCGTAACTGATTCAACACACAAAAGGGGGAAAATT [CACACA_site1754]” and “TAAATTAAAAAAAATACACACACACCGACACATATA [CACACA_site9084]” are within error of each other in “gcPBM binding intensity (ln)” value: 9.25 ± 0.23 for the first, 8.86 ± 0.42 for the second.

“TATGTTATATAATATTGTACACAAAATGGTTTCTAT [XGTACX_site7686]” and “ATATTATAGAAATATACACACATTGTTTTATAGCAT [CACACA_site7177]” are within error of each other in “gcPBM binding intensity (ln)” value: 8.48 ± 0.33 for the first, 8.45 ± 0.39 for the second.

Compared with “ATATATATATATATGTGTACATATATTAAGATATAT [XGTACX_site1065]”, “AATTACAAATATTCATGTACATATTTATAAATACAT [XGTACX_site5430]” is lower in “gcPBM binding intensity (ln)” value: 10 ± 0.3 for the first, 8.49 ± 0.3 for the second.

“CACAGTGATATAAAAACACACATGAATTCTAATTTC [CACACA_site6884]” and “AGGTATGTCTATAAATGTACATATGAGTTCAATTTC [XGTACX_site2244]” are within error of each other in “gcPBM binding intensity (ln)” value: 8.3 ± 0.21 for the first, 8.61 ± 0.38 for the second.

“AAATATATATAAACAAGTACATATTTAAAAAAAGGA [XGTACX_site2631]” and “CATAAAAATATTAATAAACACACAATCAGATATTGA [CACACA_site9032]” are within error of each other in “gcPBM binding intensity (ln)” value: 8.66 ± 0.46 for the first, 8.59 ± 0.42 for the second.
